# Data published in patent EP4696329A1, “ANTI-ROR1 ANTIBODY AND DRUG CONJUGATE THEREOF” (priority 2023, dated 2024).
# B1: ADC-2: antibody AM3-ZH3 conjugated to linker-drug compound LD-14, DAR 3.7~4.3 (conjugate)
# heavy: EVQLVESGGGLVQPGGSLRLSCAASGFTFSSYPMSWVRQAPGKGLEWVSSISTGASAYFPDSVKGRFTISRDNAKNSLYLQMNSLRAEDTAVYYCARITTSTWYMDVWGQGTTVTVSS[gap - human IgG1 constant region]
# light: DIQMTQSPSAMSASVGDRVTITCKASQDIYSYLSWFQQKPGKVPKTLIYRANRLVRGVPSRFSGSGSGQEYTLTISSLQPEDMATYYCLQYDEFPYTFGQGTKLEIKRTVAAPSVFIFPPSDEQLKSGTASVVCLLNNFYPREAKVQWKVDNALQSGNSQESVTEQDSKDSTYSLSSTLTLSKADYEKHKVYACEVTHQGLSSPVTKSFNRGEC
# B2: ADC-3: bispecific antibody KIH YR8/ZH3 conjugated to linker-drug compound LD-14, DAR 3.7~4.3 (conjugate)
# heavy 1: QVQLQESGPGLVKPSETLSLTCTVSGFSLTRYGVHWIRQPPGKGLEWLGVIWAGGFTNYESDLKSRLTISKDNSKNQVSLKLSSVTAADTAVYYCARRGDSYSMKYWGQGTLVTVSSASTKGPSVFPLAPSSKSTSGGTAALGCLVKDYFPEPVTVSWNSGALTSGVHTFPAVLQSSGLYSLSSVVTVPSSSLGTQTYICNVNHKPSNTKVDKKV[gap - human IgG1 Fc with changes]
# light 1: EIVLTQSPATLSLSPGERATLSCSASSQVSYIHWYQQKPGQAPRPWIYETSKLASGIPARFSGSGSGTDYTLTISSLEPEDFAVYYCQQWNYPLITFGQGTKLEIKRTVAAPSVFIFPPSDEQLKSGTASVVCLLNNFYPREAKVQWKVDNALQSGNSQESVTEQDSKDSTYSLSSTLTLSKADYEKHKVYACEVTHQGLSSPVTKSFNRGEC
# heavy 2: EVQLVESGGGLVQPGGSLRLSCAASGFTFSSYPMSWVRQAPGKGLEWVSSISTGASAYFPDSVKGRFTISRDNAKNSLYLQMNSLRAEDTAVYYCARITTSTWYMDVWGQGTTVTVSSASTKGPSVFPLAPSSKSTSGGTAALGCLVKDYFPEPVTVSWNSGALTSGVHTFPAVLQSSGLYSLSSVVTVPSSSLGTQTYICNVNHKPSNTKVDKKV[gap - human IgG1 Fc with changes]
# light 2: B1 light
# B3: ADC-4: bispecific antibody KIH YR8/ZH3 conjugated to linker-drug compound LD-1, DAR 3.7~4.3 (conjugate)
# heavy 1: QVQLQESGPGLVKPSETLSLTCTVSGFSLTRYGVHWIRQPPGKGLEWLGVIWAGGFTNYESDLKSRLTISKDNSKNQVSLKLSSVTAADTAVYYCARRGDSYSMKYWGQGTLVTVSSASTKGPSVFPLAPSSKSTSGGTAALGCLVKDYFPEPVTVSWNSGALTSGVHTFPAVLQSSGLYSLSSVVTVPSSSLGTQTYICNVNHKPSNTKVDKKV[gap - human IgG1 Fc with changes]
# light 1: B2 light 1
# heavy 2: EVQLVESGGGLVQPGGSLRLSCAASGFTFSSYPMSWVRQAPGKGLEWVSSISTGASAYFPDSVKGRFTISRDNAKNSLYLQMNSLRAEDTAVYYCARITTSTWYMDVWGQGTTVTVSSASTKGPSVFPLAPSSKSTSGGTAALGCLVKDYFPEPVTVSWNSGALTSGVHTFPAVLQSSGLYSLSSVVTVPSSSLGTQTYICNVNHKPSNTKVDKKV[gap - human IgG1 Fc with changes]
# light 2: B1 light
# B4: ADC-5: antibody AM3-ZH3 conjugated to linker-drug compound LD-1, DAR 3.7~4.3 (conjugate)
# heavy: B1 heavy
# light: B1 light
# Tested on: subcutaneous HCC1187 tumors
# Experiment: ADC efficacy in breast cancer cell line HCC1187 graft mouse model
# Assay type: in vivo, CB17 SCID mouse
# Conditions: HCC1187, 1 mg/kg, Q4D×2, intravenous
# Description: (§1) 1 × 10^7 HCC1187 cells (a breast cancer cell line that expresses human ROR1, purchased from ATCC) were subcutaneously grafted into each female severe combined immunodeficiency CB17 SCID mouse (purchased from Charles River Laboratories). After the graft, when the average tumor size reached 162 mm^3 (day 0), the mice were divided into groups, and the ADC1, ADC2, ADC3, ADC4, or ADC5 prepared in Example 8 was intravenously injected into mice at 3.0 mg/kg once (single administration), or ADC2, ADC3, ADC4, or ADC5 was intravenously injected into mice at 1.0 mg/kg once every four days for a total of two doses (day 0 and day 4, Q4D × 2). In the control group, PBS was intravenously injected into mice at 4 mL/kg. During the 48 days thereafter, the tumor size and body weight of the mice were measured, and the tumor growth inhibition (TGI) rate was calculated. TGI was calculated as follows: TGI (%) = 1−[(Td−T0)/(Cd−C0)] × 100% [formula] where Td and Cd are the average tumor volumes of the treatment group and the control group on the day of tumor volume measurement, and T0 and C0 are the average tumor volumes of the treatment group and the control group on day 0.
row,Molecule,Tumor growth inhibition rate TGI% (day 27)
1,B1,111.08%
2,B2,111.01%
3,B3,111.64%
4,B4,111.35%

# Same assay, conditions: HCC1187, 3 mg/kg, single administration, intravenous
row,Molecule,Tumor growth inhibition rate TGI% (day 27)
1,B1,109.30%
2,B2,111.26%
3,B3,111.25%
4,B4,111.77%

# Tested on: subcutaneous Jeko-1 tumors
# Experiment: ADC efficacy in mantle cell lymphoma cell line Jeko-1 graft mouse model
# Assay type: in vivo, CB17 SCID mouse
# Conditions: Jeko-1, 1 mg/kg, Q4D×3, intravenous
# Description: as §1
# 1 × 10^7 Jeko-1 cells (mantle cell lymphoma cells that express human ROR1, purchased from ATCC) were subcutaneously grafted into each female severe combined immunodeficiency CB17 SCID mouse (purchased from Charles River Laboratories). After the graft, when the average tumor size reached 156 mm^3 (day 0), the mice were divided into groups, and the ADC1, ADC2, ADC3, ADC4, or ADC5 prepared in Example 8 was intravenously injected into mice at 3.0 mg/kg once (single administration), or ADC2, ADC3, ADC4, or ADC5 was intravenously injected into mice at 1.0 mg/kg once every four days for a total of three doses (day 0, day 4, and day 8, Q4D × 3). In the control group, PBS was intravenously injected into mice at 4 mL/kg. During the 51 days thereafter, the size of the tumor grafts in the mice and the body weight of the mice were measured, and the tumor growth inhibition (TGI) rate was calculated. Table 15. The tumor growth inhibition rates of different ADCs against subcutaneous Jeko-1 tumors in mice
row,Molecule,Tumor growth inhibition rate TGI% (day 20)
1,B1,96.42%
2,B2,102.16%
3,B3,97.79%
4,B4,81.55%

# Same assay, conditions: Jeko-1, 3 mg/kg, single administration, intravenous
row,Molecule,Tumor growth inhibition rate TGI% (day 20)
1,B1,92.00%
2,B2,101.26%
3,B3,99.82%
4,B4,87.48%

# Tested on: subcutaneous PA-1 tumors
# Experiment: ADC efficacy in ovarian cancer cell line PA-1 graft mouse model
# Assay type: in vivo, nude mouse
# Conditions: PA-1, 1 mg/kg, single administration, intravenous
# Description: as §1, with “TGI was calculated as follows: TGI (%) = 1−[(Td−T0)/(Cd−C0)] × 100% [formula] where Td and Cd are the average tumor volumes of the treatment group and the control group on the day of tumor volume measurement, and T0 and C0 are the average tumor volumes of the treatment group and the control group on day 0.” left out
# 5 × 10^6 PA-1 cells (an ovarian cancer cell line that expresses human ROR1, purchased from ATCC) were subcutaneously grafted into each female nude mouse (purchased from Charles River Laboratories). […] During the 13 days thereafter, the tumor size and body weight of the mice were measured, and TGI was calculated. […]
row,Molecule,Tumor growth inhibition rate TGI% (day 13)
1,B2,37.45%

# Same assay, conditions: PA-1, 3 mg/kg, single administration, intravenous
row,Molecule,Tumor growth inhibition rate TGI% (day 13)
1,B2,103.88%
